The campaign covered roughly 310,000 compounds. About 14,000 (4.5%) showed an effect of 50% or more. Effects have a minus sign here. The list shows a part of the results.
target: human ether-à-go-go-related gene (hERG) potassium channel (human, UniProt Q12809); experiment: primary screen, population patch clamp on CHO cells stably expressing hERG
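Also: peak tail current of the secondary pulse compared with the same well before compound.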

Sequence of human ether-à-go-go-related gene (hERG) potassium channel (Q12809 whole entry, looked up): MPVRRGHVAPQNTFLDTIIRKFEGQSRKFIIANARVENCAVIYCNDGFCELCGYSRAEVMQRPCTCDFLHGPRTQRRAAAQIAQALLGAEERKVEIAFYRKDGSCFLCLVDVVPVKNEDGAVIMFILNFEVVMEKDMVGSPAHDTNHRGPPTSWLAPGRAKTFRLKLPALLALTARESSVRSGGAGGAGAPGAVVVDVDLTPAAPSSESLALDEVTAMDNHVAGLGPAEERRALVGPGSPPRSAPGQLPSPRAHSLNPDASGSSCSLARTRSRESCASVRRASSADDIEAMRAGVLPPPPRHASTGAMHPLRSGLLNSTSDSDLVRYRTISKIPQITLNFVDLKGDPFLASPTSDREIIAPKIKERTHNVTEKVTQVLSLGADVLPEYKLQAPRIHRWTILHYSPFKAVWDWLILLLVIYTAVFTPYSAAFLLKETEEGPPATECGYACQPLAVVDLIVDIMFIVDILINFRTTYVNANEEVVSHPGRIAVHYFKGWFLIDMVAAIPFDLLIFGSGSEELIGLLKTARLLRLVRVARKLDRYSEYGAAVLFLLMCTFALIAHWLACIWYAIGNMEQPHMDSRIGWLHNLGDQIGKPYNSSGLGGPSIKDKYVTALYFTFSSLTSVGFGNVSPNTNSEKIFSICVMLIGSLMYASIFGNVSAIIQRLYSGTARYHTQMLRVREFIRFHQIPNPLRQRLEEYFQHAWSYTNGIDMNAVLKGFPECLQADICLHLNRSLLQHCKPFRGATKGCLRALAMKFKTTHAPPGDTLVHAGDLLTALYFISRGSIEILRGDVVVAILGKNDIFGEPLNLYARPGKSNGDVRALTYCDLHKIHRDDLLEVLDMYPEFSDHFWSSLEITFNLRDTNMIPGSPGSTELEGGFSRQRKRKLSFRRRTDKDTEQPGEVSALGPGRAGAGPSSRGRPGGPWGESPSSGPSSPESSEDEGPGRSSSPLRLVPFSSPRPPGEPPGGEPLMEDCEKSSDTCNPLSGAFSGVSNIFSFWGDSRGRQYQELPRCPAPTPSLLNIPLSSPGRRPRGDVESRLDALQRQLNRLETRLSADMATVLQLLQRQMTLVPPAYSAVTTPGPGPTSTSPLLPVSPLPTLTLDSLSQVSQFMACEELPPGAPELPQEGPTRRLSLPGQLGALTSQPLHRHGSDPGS

Question: For `NC(=O)C1CCN(CC(=O)N2c3ccccc3CCc3ccccc32)CC1`, which “hERG current change (%, negative = inhibition) at 10uM” value is on record?
Answer: 19.3%

Question: With `CCCCCCCC(=O)Nc1cc(C(=O)NCc2ccc(C)cc2)ccc1N1CCC2(CC1)CC(c1cccc(Br)c1)=NO2` as the molecule, how does the “hERG current change (%, negative = inhibition) at 10uM” value read?
Answer: 2.8%

Question: For `COc1ccc(OC)c2c1sc(=NC(=O)C(C)(C)C)n2C`, which “hERG current change (%, negative = inhibition) at 10uM” value is on record?
Answer: 7.72%

Question: `Cl.Clc1ccccc1C(c1nnnn1Cc1ccco1)N1CCN(Cc2ccco2)CC1` (centres unmarked) was tested. Which “hERG current change (%, negative = inhibition) at 10uM” value did it give?
Answer: -27.6%

Question: Which “hERG current change (%, negative = inhibition) at 10uM” value does the source give for `Cc1ccc(-c2csc(N(CC3CCCO3)C(=O)c3ccco3)n2)cc1` (centres unmarked) here?
Answer: -5.32%

Question: Which “hERG current change (%, negative = inhibition) at 10uM” value does the source give for `CCCCCCOC(=O)c1ccccc1N` here?
Answer: 1.33%

Question: Which “hERG current change (%, negative = inhibition) at 10uM” value does the source give for `Br.COC(=O)COc1ccc(C(=O)Cn2c(NCCCO)nc3ccccc32)cc1` here?
Answer: -2.45%

Question: For `Cc1ccc2nsnc2c1N(S(C)(=O)=O)S(C)(=O)=O`, which “hERG current change (%, negative = inhibition) at 10uM” value is on record?
Answer: -1.27%

Question: How did the “hERG current change (%, negative = inhibition) at 10uM” value turn out when `Cc1cc(Br)ccc1OCC(=O)NNC(=O)C(=O)Nc1ccccc1` was run?
Answer: -0.47%

Question: Which “hERG current change (%, negative = inhibition) at 10uM” value does the source give for `CCOC(=O)n1c(SCC(N)=O)nc2ccccc21` here?
Answer: -0.109%

Question: For `COc1ccc(NC(=O)NNC(=O)COc2ccc3cc(Br)ccc3c2)cc1OC`, which “hERG current change (%, negative = inhibition) at 10uM” value is on record?
Answer: 5.68%

Question: For `CC(=O)Nc1ccc(NC(=O)CCCN2C(=O)c3ccccc3C2=O)cc1`, which “hERG current change (%, negative = inhibition) at 10uM” value is on record?
Answer: 15.9%

Question: With `Cc1ccccc1OCC(=O)OCC(=O)NCCNC(=O)COC(=O)COc1ccccc1C` as the molecule, how does the “hERG current change (%, negative = inhibition) at 10uM” value read?
Answer: -0.564%

Question: Which “hERG current change (%, negative = inhibition) at 10uM” value does the source give for `Cc1ccc(C(=O)CNc2ccccc2C)cc1` here?
Answer: 7.29%

Question: `Cc1ccc(-c2cc(C(=O)Nc3cc(C)on3)no2)cc1` was tested. Which “hERG current change (%, negative = inhibition) at 10uM” value did it give?
Answer: 20.4%

Question: `CC(C)C[C@H](NC(=O)C1(c2ccccc2)CCN(C(=O)OC(C)(C)C)CC1)C(=O)N1CCC[C@H]1C(=O)O` was tested. Which “hERG current change (%, negative = inhibition) at 10uM” value did it give?
Answer: 9.37%

Question: For `CCCCn1c(C)nc2cc(S(=O)(=O)N3CCOCC3)ccc21`, which “hERG current change (%, negative = inhibition) at 10uM” value is on record?
Answer: -11.7%

Question: How did the “hERG current change (%, negative = inhibition) at 10uM” value turn out when `CCCNC(=O)c1ccccc1NC(=O)c1ccc2c(=O)n3c(nc2c1)CCC3` was run?
Answer: -14.9%

Question: For `Cc1ccc(S(=O)(=O)N2CCN(C(=O)CC(C)n3cncn3)CC2)cc1C` (centres unmarked), which “hERG current change (%, negative = inhibition) at 10uM” value is on record?
Answer: 9.56%

Question: `COc1cc(C(C(=O)NC2CCCC2)N(Cc2ccccc2)C(=O)c2snc(C(N)=O)c2N)ccc1O` (centres unmarked) was tested. Which “hERG current change (%, negative = inhibition) at 10uM” value did it give?
Answer: -0.527%

Question: `CC(C)c1ccc(CNc2ncccn2)cc1.O=C(O)C(=O)O` was tested. Which “hERG current change (%, negative = inhibition) at 10uM” value did it give?
Answer: 8.67%

Question: How did the “hERG current change (%, negative = inhibition) at 10uM” value turn out when `CC(=O)N1CCN(S(=O)(=O)c2cccc(C(=O)Nc3ccc4c(c3)OCO4)c2)CC1` was run?
Answer: -12.2%

Question: With `COc1ccc(-c2cc3c(=O)n(CC(=O)NCCCN4CCN(Cc5ccccc5)CC4)ncn3n2)cc1` as the molecule, how does the “hERG current change (%, negative = inhibition) at 10uM” value read?
Answer: -54.8%
